Test results from PMC4336329 (PLoS ONE, 2015).
Among all 310,000 compounds or so, about 14,000 (4.5%) showed an effect of 50% or more. The effect is printed as a negative number. The list shows a part of the results.

Target: human ether-à-go-go-related gene (hERG) potassium channel (human, UniProt Q12809)
Experiment: primary screen, population patch clamp on CHO cells stably expressing hERG
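Further: peak tail current of the secondary pulse compared with the same well before compound.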

human ether-à-go-go-related gene (hERG) potassium channel, sequence (Q12809 whole entry, looked up): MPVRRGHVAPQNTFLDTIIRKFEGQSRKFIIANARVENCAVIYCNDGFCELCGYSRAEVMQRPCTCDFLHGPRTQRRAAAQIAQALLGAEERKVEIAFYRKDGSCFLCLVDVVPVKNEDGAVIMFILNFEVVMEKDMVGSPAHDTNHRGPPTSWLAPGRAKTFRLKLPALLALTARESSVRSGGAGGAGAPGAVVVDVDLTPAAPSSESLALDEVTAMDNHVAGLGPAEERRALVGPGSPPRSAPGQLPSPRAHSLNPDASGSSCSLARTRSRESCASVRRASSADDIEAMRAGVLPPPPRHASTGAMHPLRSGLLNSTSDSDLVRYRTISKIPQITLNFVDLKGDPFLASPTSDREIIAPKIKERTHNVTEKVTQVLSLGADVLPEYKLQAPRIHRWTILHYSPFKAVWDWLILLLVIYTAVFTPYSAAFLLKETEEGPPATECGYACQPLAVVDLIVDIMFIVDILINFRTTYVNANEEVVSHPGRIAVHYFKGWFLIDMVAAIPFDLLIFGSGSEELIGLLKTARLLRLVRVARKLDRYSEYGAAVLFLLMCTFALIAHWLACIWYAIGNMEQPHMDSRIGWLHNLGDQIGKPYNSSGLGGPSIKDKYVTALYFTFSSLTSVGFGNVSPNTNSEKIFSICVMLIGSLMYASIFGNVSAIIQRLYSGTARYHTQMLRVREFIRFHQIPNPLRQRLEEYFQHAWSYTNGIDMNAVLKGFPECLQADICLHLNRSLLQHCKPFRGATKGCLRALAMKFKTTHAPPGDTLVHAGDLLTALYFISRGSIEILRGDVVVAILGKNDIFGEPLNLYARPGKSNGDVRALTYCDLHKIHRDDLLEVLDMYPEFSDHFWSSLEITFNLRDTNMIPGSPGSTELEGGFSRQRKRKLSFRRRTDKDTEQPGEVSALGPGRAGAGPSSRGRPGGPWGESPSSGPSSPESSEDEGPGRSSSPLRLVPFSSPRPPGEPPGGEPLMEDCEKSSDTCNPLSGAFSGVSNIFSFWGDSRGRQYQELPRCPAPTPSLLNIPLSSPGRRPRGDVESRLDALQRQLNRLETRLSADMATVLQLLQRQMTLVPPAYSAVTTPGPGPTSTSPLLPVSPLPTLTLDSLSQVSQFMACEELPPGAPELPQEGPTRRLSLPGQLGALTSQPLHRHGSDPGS

| Compound | hERG current change (%, negative = inhibition) at 10uM [%] |
| --- | --- |
| O=C(NNC1CC(=O)N(c2ccc(Br)cc2)C1=O)c1cccs1 (centres unmarked) | 9.23 |
| COc1ccc(C(=O)Nc2cccc(OC(=O)c3ccc(C)c(C)c3)c2)cc1 | -7.1 |
| O=C(Cc1ccc(-n2cccc2)cc1)NC1CCCCCC1 | -12 |
| COc1cccc(CC(=O)OCC(=O)NC(Cc2ccccc2)C(C)=O)c1 (centres unmarked) | 4.36 |
| O=C(Nc1cccc(O)c1)c1cc(-c2ccc3c(c2)OCO3)on1 | 11.3 |
| O=C(COC(=O)[C@@H]1CCCN1S(=O)(=O)c1ccc(Cl)cc1)NC1CCS(=O)(=O)C1 (some centres unmarked) | -14.7 |
| O=[N+]([O-])c1ccc(S(=O)(=O)NCC2COc3ccccc3O2)cc1 (centres unmarked) | -30.5 |
| Cc1ccc(-c2c[n+]3c(n2-c2ccccc2)SCC3)cc1.[Br-] | -35.8 |
| N#CC(=C1Nc2ccccc2N1)S(=O)(=O)c1ccccc1 | 14.4 |
| CC(=O)c1sc(NC(=O)C2CCN(C(=O)c3ccccc3C)CC2)nc1-c1ccccc1 | -8.99 |
| O=C(CN(c1ccccc1F)S(=O)(=O)c1ccccc1)NC1CCCCCC1 | 2.92 |
| COc1ccc(/C=C/C(=O)Nc2ccccc2C(=O)O)cc1OC | -1.9 |
| O=C(Nc1cccc(NC(=O)c2ccco2)c1)c1ccccc1 | -9.36 |
| CCOC(=O)C1(CC2CCCCO2)CCN(C(=O)Nc2ccc(C(=O)OC)cc2)CC1 (centres unmarked) | 7.13 |
| CCCn1c(N)c(N(CCOC)C(=O)c2ccc(N(C)S(=O)(=O)c3ccc(C)cc3)cc2)c(=O)[nH]c1=O | 7.32 |
| COc1ccc(CNc2nc3nc(-c4ccccc4)cc(=O)n3[nH]2)cc1OC | -13.1 |
| CSc1ccc(Cl)c(C(=O)NCC(C)C)c1 | 14.7 |
| CCN(c1ccccc1)c1cc(C)nc2nc(C)nn12 | 9.16 |
| O=C1/C(=C/c2cccc([N+](=O)[O-])c2)CSc2ccc(Cl)cc21 | 9.89 |

| Compound | hERG current change (%, negative = inhibition) at 10uM [%] |
| --- | --- |
| COc1ccc(N2CC(C(=O)Nc3nnc(SCC(=O)NC4CCCC4)s3)CC2=O)cc1 (centres unmarked) | 16.2 |
| O=C(O)c1ccc2c(c1)C1C=CCC1C(c1cc3c(cc1Br)OCO3)N2 (centres unmarked) | 21.2 |
| COc1ccccc1CCCNC(=O)C1CCC(=O)N(Cc2ccccc2F)C1 (centres unmarked) | -1.76 |
| CCc1nnc(SCC(=O)NC2CCCCC2)nc1CC | -10.4 |
| Cc1ccc(S(=O)(=O)NCCC(c2ccc(F)cc2)c2ccco2)cc1 (centres unmarked) | 10.8 |
| COc1ccc(N2CCN(S(=O)(=O)CCNC(=O)C(C)Oc3ccccc3)CC2)cc1 (centres unmarked) | -7.31 |
| CCCCC(=O)Nc1cccc(NC(=O)c2cccnc2Cl)c1 | 7.23 |
| Cc1cc(C)cc(NC(=O)C2C3C=CC4(O3)C2C(=O)N(CCCN(C)C)C4C(=O)NC2CCCC(C)C2C)c1 (centres unmarked) | -1.63 |
| O=C(CCSc1ccc(Cl)c(Cl)c1)NC12CC3CC(CC(C3)C1)C2 | 9.84 |
| CCc1cc(C(=O)N(C)CC(=O)Nc2c(Cl)cccc2Cl)sc1C | -2.89 |
| COC(=O)C1CCN(C(=O)CCC2CCCCC2)CC1 | -1.82 |
| COc1ccc(C2=CC(=O)CC(C)(C)C2)cc1OC | -0.218 |
| O=C(O)c1ccc(N(Cc2ccccc2)S(=O)(=O)c2ccccc2)cc1 | -1.2 |
| COc1ccc2nc(N3CCCC(O)C3)c(C#N)cc2c1 (centres unmarked) | -8.11 |
| COc1ccc2c(c1)CC[C@@H]1[C@@H]2CC[C@]2(C)[C@@H](C(C)=O)C[C@@H]12 | 3.71 |
| Cc1ccc(S(=O)(=O)N2CC=C(c3ccc(F)cc3)CC2)cc1 | -19.7 |
| Cc1ccc2c(CN3CCCCC3)cc(=O)oc2c1C | -1.49 |
| O=C(O)CC(c1ccc(Cl)cc1)N1C(=O)CCC1=O (centres unmarked) | -7.96 |
| COc1ccc(OC)c(S(=O)(=O)Nc2cccc(C(C)=O)c2)c1 | -6.8 |

| Compound | hERG current change (%, negative = inhibition) at 10uM [%] |
| --- | --- |
| Cc1ccc(S(=O)(=O)Cn2nnnc2CN2CCOCC2)cc1 | 5.95 |
| Cc1cc(C#N)c(C)c(SCc2[nH]nc3c2C(c2ccccc2)C(C#N)=C(N)O3)n1 (centres unmarked) | -0.0623 |
| CCNc1nc(Oc2ccc(=O)[nH]n2)nc(SC)n1 | 8.57 |
| NC(=O)NCc1ccc(C(=O)OCc2ccncc2)cc1 | 9.6 |
| COc1cccc(N2CCN(c3nc(C)cc(C)c3C#N)CC2)c1 | 2.67 |
| COc1ccc2oc(C(=O)OCC(=O)Nc3ccccc3)c(C)c2c1 | -1.23 |
| CN(C)/C=C1/C(=O)NC(=O)N(CCNc2ncc(C(F)(F)F)cc2Cl)C1=O | -12.4 |
| COc1cccc(C2=CC(=O)CCC2)c1 | 5.78 |
| Cc1ccc(NC(=O)C(C)OC(=O)Cn2[nH]c(=O)c3ccccc3c2=O)cc1 (centres unmarked) | 14.8 |
| CC(C)=CCN1CCN(CC#Cc2ccccc2)CC1CCO (centres unmarked) | -13 |
| O=C(CCC(=O)N(CC(=O)NC1CCCCC1)Cc1cccs1)Nc1nccs1 | 4.6 |
| Cn1cc(-c2ccc(Cl)cc2)cc(C#N)c1=O | 2.64 |
| O=C(Nc1ccc2c(c1)CCC2)c1cnc(Cl)c(Cl)c1 | 0.674 |
| COc1cc(OC)c(OC)cc1CN1CCN(S(=O)(=O)c2ccc(NC(C)=O)cc2)CC1.O=C(O)C(=O)O | 7.87 |
| CN(Cc1c(C(=O)N/N=C/c2cccc(F)c2)nnn1-c1nonc1N)C1CCCCC1 | 19.2 |
| O=[N+]([O-])c1cccc(CN2CCC(Cc3ccccc3)CC2)c1 | -31.4 |
| Cc1[nH]cnc1CSCCN.Cl | 19.9 |
| OC(CN=c1sc2ccccc2n1CC(O)COc1ccccc1)COc1ccccc1 (centres unmarked) | -1.46 |
